Test results as given in the supplement of paper PMC11417369.
The other results are listed elsewhere or left out.

What follows are sequences tested on PfAP2-HC AP2 domain (GST-tagged) (assay: gcPBM binding intensity (ln(normalized median fluorescence intensity)); higher = stronger DNA binding).
Procedure, shortened: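 Binding intensity values are the highest Masliner-normalised natural-log median intensity among replicate spots of either probe orientation. The binding step lasted 1 h in 1× PBS with 1% milk, 0.2 mg/ml BSA, 0.5% salmon testes DNA and 0.03% Triton X-100, using GST-tagged P. falciparum DNA-binding domains expressed in E. coli on an Agilent 4 × 180k array of primer-extended double-stranded 36-bp intergenic genomic probes plus negative controls. Alexa488 anti-GST antibody and a 488 nm scan detected bound protein.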
TTTAATAATATTTAGGTGCTATATATTATATGTATA was tested, and the “gcPBM binding intensity (ln)” value was 9.52.
With “AAACAAAAAAGAAACACACACTAATTAAATTTTCTT [CACACA_site4746]” the “gcPBM binding intensity (ln)” value was 10.
With “TATTAAAGATACTCGGTATAAATAAATTTTAATGTG [XGTACX_negctrl_site239]” the “gcPBM binding intensity (ln)” value was 9.63.
For “AAGTGGCATATAAGTAAAAAATATATACAAGTATAT [GTGCAC_negctrl_site427]”, the “gcPBM binding intensity (ln)” value was 9.56.
For “CTCAATATATTTGATTTACACACTTACAATGTATAT [CACACA_site8982]”, the “gcPBM binding intensity (ln)” value was 9.88.
For “ATGCTTATTATTTATTGTACTGAATAAATATATCTG [XGTACX_site4483]”, the “gcPBM binding intensity (ln)” value was 9.69.
For “ACAACATGCACACGCACACACAAAAAAAGCATGCAT [CACACA_site6185]”, the “gcPBM binding intensity (ln)” value was 10.3.
In the case of “TATAAAAAATATAATTGTACATAAAGGTTAAAATGT [XGTACX_site6138]”, the “gcPBM binding intensity (ln)” value is reported as 9.73.
With “TTATTTCTACCTTTTTGTACACATTATTATGAAACC [XGTACX_site5325]” the “gcPBM binding intensity (ln)” value was 9.84.
“ATAAATCATAAGGAGAGTACATAAATAAAATAATCA [XGTACX_site8825]” was tested, and the “gcPBM binding intensity (ln)” value was 9.74.
“TATATATGGAAAAGGTGTACATTCAATATATATATA [XGTACX_site3167]” was tested, and the “gcPBM binding intensity (ln)” value was 9.62.
In the case of “CTATAATATAGGTATACACACATATTATAGAATATT [CACACA_site7696]”, the “gcPBM binding intensity (ln)” value is reported as 9.79.
With “ATATAAAATAGACACGCACACAAAAAAAAAAAAAAA [CACACA_site3522]” the “gcPBM binding intensity (ln)” value was 10.4.
With “TATGTCAAAAAATAATGTACAAAAAAATTAACATAA [XGTACX_site5463]” the “gcPBM binding intensity (ln)” value was 9.66.
TATATTTTTTTTCTAGTGCATATTATTAATTAAGTT was tested, and the “gcPBM binding intensity (ln)” value was 9.62.
For “TGAGTATTTTTTTAATGTACTTATATTAAAAGGAAA [XGTACX_site6286]”, the “gcPBM binding intensity (ln)” value was 9.34.
“TACAAAATAAGACATGCATGTTATACATATATATTT [TGCATGCA_site321]” was tested, and the “gcPBM binding intensity (ln)” value was 9.89.
In the case of “AAAATATTATTTTGTTGTACATATAAAATTTTAAGC [XGTACX_site1866]”, the “gcPBM binding intensity (ln)” value is reported as 9.63.
In the case of “TTTATTTTGTAGTGTACACATATATATATATATATA [CACACA_site5843]”, the “gcPBM binding intensity (ln)” value is reported as 9.76.
For “TATAAGAATGACAAGTGTACATATCAAATATATTAG [XGTACX_site7113]”, the “gcPBM binding intensity (ln)” value was 9.79.
In the case of “TATTTTTTATATTTATTTATTTAAAGGAGCTTTTCT [GTGCAC_negctrl_site293]”, the “gcPBM binding intensity (ln)” value is reported as 9.27.
For “TATACTAAAAAATACACATGCACATACAATATATAT [TGCATGCA_site1016]”, the “gcPBM binding intensity (ln)” value was 10.1.
For “AATATAAATTAATTTACACACTAAAAAATATTTATA [CACACA_site7728]”, the “gcPBM binding intensity (ln)” value was 9.59.
“ACATACTTTAATATATGTACATAAGAAAAAAAAAAA [XGTACX_site2991]” was tested, and the “gcPBM binding intensity (ln)” value was 9.73.
In the case of “TGTACATATATATATATAATAATAGTTATGTTTATT [CACACA_negctrl_site1474]”, the “gcPBM binding intensity (ln)” value is reported as 9.64.
